Screen size: about 150,000 compounds; about 540 (0.36%) showed an effect of 50% or more. The list shows a part of the results.

The assay has as its system Plasmodium falciparum. In words: Primary screen in NF54 nanoGlo assay, in single point, at 2uM, 72h; a lower Z score goes with more inhibition. It counts as functional, Erythrocyte. The settings on record: timepoint 72 hour.
Take `CC(C)N(C(=O)c1coc(CC2CC2)n1)C1CCCCC1`: the % Inhibition – broadly, the relative decrease from the control value, in per cent – was -5% and the Z score stood at 0.54.
With `Cc1nc(C)c(C(=O)N2CCN(Cc3ccccc3)[C@@H]3CS(=O)(=O)C[C@@H]32)o1`, the “% Inhibition” value is reported as -15% and the Z score is recorded as 1.92.
Consider `CCCC[C@H](CC)C(=O)NCc1nc(C)no1`, for which the “% Inhibition” value is on record as -4% and the Z score came to 0.57.
In the case of `Cc1cccc(C(O)CN(Cc2ccccc2)C(=O)C2CCCN(C(=O)C(C)C)C2)c1` (stereo not given), the “% Inhibition” value was -13% and the Z score came out at 2.06.
Turning to `FC(F)(F)Oc1cccc(N2CC[C@H](NCc3csnn3)C2)c1`, the “% Inhibition” value is recorded as -6% and the Z score came out at 0.57.
On to `Cc1cnc([C@@H](C)CNC(=O)NCCc2cn3c(n2)CCCC3)s1`, for which the “% Inhibition” value is -2% and the Z score is 0.22.
As to `CCOc1ccc(/N=C(\NCc2c(C)nn(CC)c2C)NC(=O)c2ccc(OC)c(OC)c2)cc1`, the “% Inhibition” value is 3% and the Z score is recorded as -0.47.
The matching figures for `COc1cc(NC(=O)c2cc(C3CC3)on2)ncn1`: -8% and 1.52.
For `Cc1cc(C(=O)N[C@@H](C)c2csnn2)on1`, the “% Inhibition” value was -3% and the Z score was 0.41.
The matching figures for `O=S(=O)(Cc1ccccc1)N(CCO)CCO`: -8% and 0.79.
As for `CN(C)c1noc(CCC(=O)N[C@H](c2ccccc2)C(F)F)n1`, the “% Inhibition” value is -8% and the Z score amounted to 1.06.
As for `CCCCC1(NC(=O)c2nnc(C)s2)CC1`, the “% Inhibition” value is recorded as -12% and the Z score worked out at 1.95.
In the case of `C[C@](O)(CNS(=O)(=O)c1ccc(Cl)s1)C1CC1`, the “% Inhibition” value is -9% and the Z score is given as 1.53.
Turning to `OCc1cccc(-c2ccc3c(c2)OC[C@@H](N2CCCC2)[C@@H]3O)c1`, the “% Inhibition” value was determined as 6% and the Z score is -1.12.
As to `COc1cc2cc(C(=O)Nc3cccc(Cl)c3)cc(-c3ccc(C)cc3)c2cc1OC`, the “% Inhibition” value is listed as -12% and the Z score is 1.58.
On to `COC(=O)c1cn(CCOc2ccc(C#N)cc2)c(C)n1`, for which the “% Inhibition” value is -11% and the Z score was determined as 2.14.
For the compound `N#Cc1ccc(NCCN2CCOCC2)cc1`, the “% Inhibition” value is listed as -6% and the Z score was 0.82.
In the case of `O=C(N1CCC(n2cc(Cl)cn2)CC1)C1(O)CCCCC1`, the “% Inhibition” value is given as -1% and the Z score was 0.07.
For the compound `CN1CCC(C(=O)NCC2(c3cccc(F)c3F)CCCC2)CC1`, the “% Inhibition” value is given as -6% and the Z score was 1.17.
Take `C[C@H](NC(=O)CCn1c(=O)cc(C(F)F)c2cn(C3CCCC3)nc21)c1ccn(C)n1`: the “% Inhibition” value stood at 26% and the Z score is -2.91.
As to `O=S(=O)(Nc1ccnn1[C@H]1CCOC1)c1cnn(C2CCC2)c1`, the “% Inhibition” value was 12% and the Z score is -1.56.
For the compound `Cc1ccc(C)c(CN2CCN(Cc3[nH]cnc3C)[C@@H]3CS(=O)(=O)C[C@@H]32)c1`, the “% Inhibition” value is recorded as -13% and the Z score worked out at 1.5.
Take `CC1(C)C[C@@H]1NC(=O)c1ccc(S(C)(=O)=O)cc1`: the “% Inhibition” value was -1% and the Z score is reported as 0.13.
As to `COc1cc(C)ccc1Oc1ccc(NCC2(C)CCOCC2)cn1`, the “% Inhibition” value is recorded as 9% and the Z score was -1.17.
With `COc1ccc(CN2CCC([C@]3(Cc4cccc(OC)c4)NC(=O)N(C)C3=O)CC2)cc1`, the “% Inhibition” value was determined as 0% and the Z score came to 0.02.
For `O=C(O)COc1ccccc1CN1C[C@@H]2CC[C@H]1CN(C(=O)C1CCC1)C2` the same measures were -9% and 1.16.
With `Cn1c(C2CCC(CNC(=O)c3ccno3)CC2)nc2ccccc21` (stereo not given), the “% Inhibition” value is -5% and the Z score amounted to 0.76.
Regarding `CC(C)Oc1ccc(S(=O)(=O)NC2(c3noc(C4CC4)n3)CCCC2)cc1`, the “% Inhibition” value is given as -4% and the Z score amounted to 0.45.
Turning to `CC1(C)Oc2ccsc2[C@@H](Nc2ccc3nncn3n2)[C@@H]1O`, the “% Inhibition” value was -8% and the Z score is 0.71.
The matching figures for `CCN(CC(=O)NC)c1ccccc1C`: -8% and 1.08.
The matching figures for `CCCc1cc(-c2ccc3c(c2)OCCO3)nc(C)n1`: -1% and 0.22.
On to `C[C@H]1CNc2c(NC(=O)NCCNc3ccc(C#N)cn3)cnn2C1`, for which the “% Inhibition” value was -6% and the Z score is recorded as 1.01.
In the case of `C[C@H]1CCC(C)(C)N1C(=O)c1ccc2nnnn2c1`, the “% Inhibition” value is reported as -3% and the Z score is recorded as 0.59.
For the compound `CCCn1ncc(CN2CCN(c3ccnc4ccccc34)CC2)c1C`, the “% Inhibition” value is recorded as -3% and the Z score worked out at 0.54.
For `CCOC1(C)CCN(C(=O)NC[C@H]2Cc3ccccc3CN2)CC1`, the “% Inhibition” value was -1% and the Z score amounted to 0.27.
The matching figures for `COc1cc(Br)cc(S(=O)(=O)Nc2nnc(-c3ccc(C)c(F)c3)o2)c1`: -42% and 4.89.
On to `c1coc(-c2ncc(-c3cn(CCN4CCc5ccccc54)nn3)cn2)c1`, for which the “% Inhibition” value amounted to 18% and the Z score is -2.33.
Take `O=C1CCCCN1CC(=O)N1CCO[C@@H](CCCc2ccccc2)C1`: the “% Inhibition” value is given as -17% and the Z score is listed as 2.82.
With `C[C@@H](CNC(=O)N1CCOC2(CCC2)C1)Oc1ccc(Cl)cc1`, the “% Inhibition” value is -1% and the Z score is 0.25.
As for `CCOC(=O)c1cc(S(=O)(=O)N2CCC[C@H]2C(=O)Nc2ccc3c(c2)OCCO3)cn1C`, the “% Inhibition” value is reported as -2% and the Z score is given as 0.36.
With `CC1CCN([C@@H](C)C(=O)N2CCc3onc(-c4ccccc4)c3C2)CC1`, the “% Inhibition” value is -7% and the Z score was 0.84.
In the case of `C[C@H]1CN(C(=O)c2ccc3ncsc3c2)C[C@]1(O)C1CCC1`, the “% Inhibition” value is -12% and the Z score was found to be 2.1.
Take `Cc1csc([C@H](C)NC(=O)c2cnn[nH]2)n1`: the “% Inhibition” value is -4% and the Z score worked out at 0.8.
Turning to `COc1ccccc1N1CCN(C(=O)C[C@H]2CCOC3(CCN(C(C)=O)CC3)C2)CC1`, the “% Inhibition” value is given as -1% and the Z score is 0.15.
Regarding `Oc1ccnc2c1ccc1c(O)ccnc12`, the “% Inhibition” value is -9% and the Z score stood at 1.07.
On to `Fc1ccccc1-c1noc(NCc2ccc(Cl)cc2)n1`, for which the “% Inhibition” value is -11% and the Z score was 1.01.
`Cc1oc(C(C)C)nc1C(=O)NCc1ccncc1`: the “% Inhibition” value is -15% and the Z score worked out at 2.
On to `COc1ccc(C)cc1-c1n[nH]c(C(=O)N(C)C)n1`, for which the “% Inhibition” value is on record as -7% and the Z score is 0.62.
For `C=C(C)C[C@H](C)C(=O)Nc1cnsc1` the same measures were -3% and 0.39.
As to `Cc1cc(C)c(C(=O)N2CCCC[C@@H]2C(=O)O)o1`, the “% Inhibition” value is reported as -4% and the Z score stood at 0.6.
The matching figures for `Cc1noc2ncc(NCc3c4c(nn3C)CCC4)cc12`: 2% and -0.39.
Consider `Cc1cc(C)cc(C(=O)N2CCCN(c3cc(=O)n(C)c(=O)n3C)CC2)c1`, for which the “% Inhibition” value is listed as -6% and the Z score turned out to be 0.87.
`C[C@H]1CCN(Cc2cn(C)c(=O)n(C)c2=O)c2ccccc21`: the “% Inhibition” value is -7% and the Z score was determined as 1.29.
For `c1nc(N2CCC(COc3cc4c(nn3)CCC4)CC2)c2cc[nH]c2n1`, the “% Inhibition” value was -5% and the Z score worked out at 0.57.
On to `CCC(=O)N[C@@H]1c2ccccc2C2(CCN(C(=O)c3sccc3C)CC2)[C@H]1OCc1cccnc1`, for which the “% Inhibition” value was 1% and the Z score is recorded as -0.11.
As for `Fc1ccccc1Nc1nc(Oc2ccc(Cl)cc2)nc(N2CCc3ccccc3C2)n1`, the “% Inhibition” value is on record as 5% and the Z score is -0.68.
In the case of `C=Cc1ccc(C(=O)Nc2ccc(-c3cnn(C)c3)nn2)cc1`, the “% Inhibition” value is 6% and the Z score was -0.82.
For `CCCc1cnc(NC(=O)c2cnn(CC)c2)s1` the same measures were -9% and 1.47.
Regarding `O=C(CCc1ccc(Cl)c(C(F)(F)F)c1)NCc1cccnc1-c1ccsc1`, the “% Inhibition” value was 0% and the Z score was -0.06.
For the compound `O=C(Cc1noc2ccccc12)N1CCC[C@@]2(CCOC2)C1`, the “% Inhibition” value is given as 2% and the Z score is -0.33.
`CN1CCN(C(=O)c2ncc(F)cc2F)C[C@H]1c1ccccc1`: the “% Inhibition” value was 3% and the Z score is reported as -0.49.
Take `CCc1cnc(CCNC(=O)N2CCO[C@H](c3cccc(Cl)c3)[C@H]2C)s1`: the “% Inhibition” value came to 0% and the Z score is listed as -0.04.
For `O=S(=O)([C@H]1CCOC1)N1Cc2cnn(-c3ccccc3)c2C1` the same measures were 5% and -0.95.
For `O=C(COC(=O)CN1C(=O)c2ccccc2C1=O)Nc1ccc(N2CCCCC2)cc1`, the “% Inhibition” value is recorded as -2% and the Z score is reported as 0.27.
`COCCOCc1nc([C@@H]2CCCCN2C(=O)C2CCCC2)no1`: the “% Inhibition” value was -12% and the Z score came out at 1.57.
In the case of `CCN(CC)CCc1ccc(NC2CCN(C(=O)C(C)(C)C)CC2)cc1`, the “% Inhibition” value was -11% and the Z score is 1.43.
`Cc1cc(N[C@@H](C)[C@H](O)c2ccc(O)cc2)n2nc(C)cc2n1`: the “% Inhibition” value is on record as -24% and the Z score was 2.21.
As to `O=C(CN1CCn2nc(-c3ccc(Cl)cc3)cc2C1=O)NCCN1CCCCC1`, the “% Inhibition” value was -8% and the Z score was 1.12.
As for `CC(C)N1CCCn2cc(S(=O)(=O)Nc3cccc(C(F)(F)F)c3)cc2C1=O`, the “% Inhibition” value is listed as -15% and the Z score is 1.77.
For the compound `O=C(O)[C@H]1CCCN1C(=O)CCc1ccccc1Cl`, the “% Inhibition” value was -4% and the Z score worked out at 0.36.
Consider `COc1cccc(CC(=O)N2CC(N(Cc3ccccn3)C(=O)Nc3ccccc3)C2)c1`, for which the “% Inhibition” value was determined as 1% and the Z score is listed as -0.28.
Turning to `Cc1cc(NC(=O)N[C@H]2CC(=O)N(C3CCCC3)C2)ccc1Br`, the “% Inhibition” value was determined as 0% and the Z score is recorded as -0.07.
For the compound `CC(NCC(C#N)CCC#N)c1cccc(Br)c1` (stereo not given), the “% Inhibition” value is given as -12% and the Z score stood at 1.74.
Consider `O=C1CN(c2ccccc2)C(=O)N1CCOc1cccc(Br)c1`, for which the “% Inhibition” value was found to be 0% and the Z score was found to be 0.06.
With `CCOc1cccc(CNC(=O)C[C@H]2c3ncccc3C(=O)N2c2ccccc2)c1`, the “% Inhibition” value is recorded as -2% and the Z score was 0.38.
For `CC(C(=O)NC(=O)NC1CCCCC1)N1CCCC1c1ccc2c(c1)OCCCO2` (stereo not given), the “% Inhibition” value is -16% and the Z score stood at 2.01.
For the compound `O=S(=O)(C1CC1)N1C[C@@H]2CC[C@H]1CN(C1Cc3ccccc3C1)C2`, the “% Inhibition” value is on record as -17% and the Z score worked out at 1.8.
With `CC1CC(C)CN(C(=O)c2ccc(-n3c(-c4ccccc4)cc4c3CCCCC4)cc2)C1` (stereo not given), the “% Inhibition” value is recorded as -12% and the Z score was determined as 2.27.
`OC[C@]1(O)CCCN(CCOc2ccccc2)CC1`: the “% Inhibition” value is recorded as -23% and the Z score is listed as 2.98.
For `O=C(NCc1cc2n(n1)CCCO2)[C@@H]1CCc2cccc(O)c21`, the “% Inhibition” value is recorded as -8% and the Z score is recorded as 1.06.
Consider `O=C(N[C@H](c1ccc2c(c1)CCO2)C1CC(O)C1)c1ncc(F)cc1F` (stereo not given in full), for which the “% Inhibition” value is on record as -7% and the Z score is listed as 0.69.
For `COc1cccc(C(=O)N2CCc3cc4ccc(C)cc4nc32)c1` the same measures were -8% and 0.89.
Consider `C[C@H]1CCCN(CC(=O)Nc2cccc3nonc23)C1`, for which the “% Inhibition” value is reported as 5% and the Z score is given as -0.53.
On to `CCOC[C@H]1CCCN1S(=O)(=O)c1cc(-c2ccno2)sc1C`, for which the “% Inhibition” value was 2% and the Z score is listed as -0.24.
Consider `O=C(COc1ccc(Cl)cc1Cl)Nc1onc2c1CCC2`, for which the “% Inhibition” value was 38% and the Z score was -4.87.

(Values after ChEMBL document CHEMBL4888484, “Replenishing the malaria drug discovery pipeline: Screening and hit evaluation of the MMV Hit Generation Library 1 (HGL1) against asexual blood stage Plasmodium falciparum ,using a nano luciferase reporter read-out” (2022).)
